Measurements: patent publication US8536096B2, “Method for controlling coniferous plants” (BASF Aktiengesellschaft, priority 2003, dated 2013)

How the values were obtained:
[1] = tested on: Wildling pine of the variety Loblolly (Pinus taeda L.); test: Greenhouse postemergence spray on wildling pine seedlings, damage rating; type: in vivo; conditions: rate 0.56 kg active/ha, day 30 after treatment, scale 0 = no damage, 100 = complete destruction, means of four replications
Protocol: Water was used as the carrier.
Here, the herbicidal compositions were suspended or emulsified in water as distribution medium to obtain a spray liquor, which was sprayed on the wildlings by using finely distributing nozzles, e.g. even flat fan spray nozzles. Spray liquor rate was 183 l/ha. The experiment was set up as a completely random design with four replications (one seedling per replication).
The test period extended over 30 days at 27° C. During this time, the plants were tended, and their response to the treatments with the active compound was evaluated.
The evaluation for the damage caused by the chemical compositions was carried out using a scale from 0 to 100%, compared to the untreated control plants. Here, 0 means no damage and 100 means complete destruction of the plants.

[2] = tested on: wildling pine of the variety Loblolly (Pinus taeda); test: Field experiment site two, postemergence spray on natural population of wildling pine, damage rating; conditions: rate 0.56 kg active/ha, ratings at 82 days after treatment, means of three replications

With CC(C)C1(C)N=C(c2ncccc2C(=O)O)NC1=O (centres unmarked) [Imazapyr, imazapyr] the “Loblolly Pine % control” value [1] was 0% and the “Loblolly Pine % control” value [2] was 10%.
